# Measurements as given in the supplement of paper PMC10338343.
# ± gives the standard deviation. The list shows a part of the results, in another mix than the full data.
# Tested on: MIWI (PIWIL1) piRISC loaded with L1MC piRNA (30 nt)
# Assay: pre-steady-state target cleavage rate (min^-1); MIWI and MILI are mouse PIWI proteins and EfPiwi is from a freshwater sponge; tags in brackets are library labels; higher = faster piRNA-guided slicing of the target
# Settings: guide: L1MC piRNA 5'p-UAACUAAAUACUAUGCAAGCUGUAGGUCCU
# In short: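 The pre-steady-state cleavage rate was calculated from a burst-and-steady-state fit. Data came from Cleave-'n-Seq, in which […] transcribed, DNA-blocked target RNA library was mixed with 1 nM active affinity-purified piRISC carrying one synthetic guide, with or without 500 nM GTSF1 partner protein, in HEPES–potassium acetate buffer at 33 °C for 0–8 or 0–960 min. Uncleaved targets were sequenced and normalised to depth and to weakly complementary targets, three trials were pooled, and k3 was capped at 0.0001 min^-1.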
# [1] = auxiliary factor: 500 nM mouse GTSF1
# [2] = auxiliary factor: none (no GTSF1)
# 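Also: 1 nM active piRISC with 0.1 nM target library at 33 °C single turnover.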
Sequence,pre-steady-state target cleavage rate [1],pre-steady-state target cleavage rate [2]
UGGACCUACAGCUUGGAUAGUUUUUAGUUA,0.381 ± 0.017,0.0324 ± 0.0074
UCCUGGAUGUGGUUGCAUAGUAUUUACUUA,0.0113 ± 0.011,0.00537 ± 0.0033
UCCUGGAUGUGCUUGCAUAGUAGUUAGUUA,0.0529 ± 0.0067,0.0132 ± 0.005
UCCACGAACAGCUUGCAUAGUAUUUAGUUA,1.05 ± 0.03,0.0671 ± 0.01
UCCUGGUACAGCAUGCAUAGUAAUUAGUUA,0.457 ± 0.054,0.0118 ± 0.0031
UCCUCCUACAGCUUGCAAAGUAUUUACUUA,0.313 ± 0.025,0.0191 ± 0.0036
UCGACGAACAGCUUGCAUAGUAUUUAGAAA,0.553 ± 0.048,0.00889 ± 0.0029
UGGACCUACACGUUGCAUAGUAUUUAGUUA,1.09 ± 0.061,0.0236 ± 0.0048
UCCUGGAUCAGCUUGCAUAGUAGUUUAGUUA,0.253 ± 0.031,0.00814 ± 0.0033
UCCUGGAACAGCAUGCAUAGUAUUUAGUAA,0.695 ± 0.061,0.0107 ± 0.0026
UCCUGGUUCAGCUUGCAUUGUAUUUAGUUA,0.61 ± 0.028,0.0343 ± 0.01
UCCUCCUACAGCUUGCAAAGUAUUUAGAAA,0.267 ± 0.037,0.00288 ± 0.0024
UCCACCUUCAGCUUGCAUAGUAUUUAGUAA,0.628 ± 0.038,0.0237 ± 0.0045
UGGACCAUCAGCUUGCAUAGUAUUUUCAAA,0.199 ± 0.028,0.00348 ± 0.0026
UCCUGGAUGAACUUGCAUAGUAUUUAGUUA,0.499 ± 0.035,0.0175 ± 0.0053
UCCUGGAACAGCUUGCUUAGUAUUUUGUUA,0.529 ± 0.044,0.0329 ± 0.0085
UCCACCUACAGCUUGCAUAUAUUUAGUUA,0.324 ± 0.038,0.00241 ± 0.0021
UCGACCUACAGGAAGCAUAGUAUUUAGUUA,0.942 ± 0.061,0.00693 ± 0.0018
UCCACCUUGUGCUUGCAUAGUAUUUAGUUA,0.492 ± 0.03,0.0325 ± 0.0064
UCCUGGAUCACCUUGCAUAGUAUAUAGUUA,0.166 ± 0.029,0.00611 ± 0.0029
UCCACGUACAGCUUGCAUAGUAUUUACAAA,0.254 ± 0.032,0.00339 ± 0.0019
UCCUGGAUGUGCUUGGAUAGAAUUUAGUUA,0.0175 ± 0.0088,0.00609 ± 0.003
UCCUGGAUGAGCUUCGCAUAGUAUUUAGUUA,0.495 ± 0.047,0.0124 ± 0.0037

Sequence,pre-steady-state target cleavage rate [1],pre-steady-state target cleavage rate [2]
UCCUGCUACAGCUUGCAUAGUAUUUACAUA,0.242 ± 0.034,0.00933 ± 0.004
UCCUGGAACAGCUUGCAUAGAAAUUAGUUA,0.069 ± 0.011,0.00611 ± 0.0041
UCCUGGAACAGCUUGCAUAGAAUUUUGUUA,0.216 ± 0.045,0.0149 ± 0.0042
AGGACCUACAGCUUGCAUAGUCUUUAGUUA,0.781 ± 0.063,0.0545 ± 0.011
UCCUGGAACAGGUUGCAUAGUAUAUAGUUA,0.426 ± 0.034,0.00898 ± 0.0024
UCCUGCUACAGCUUGCAUAGUAUUUACGUUA,0.695 ± 0.05,0.0244 ± 0.0065
UCCACCUACAGCAUGCAUUGUAUUUAGUUA,0.648 ± 0.023,0.00892 ± 0.0024
UGGACCUACAGCUUGCAUAGUUAUUAGUAA,0.0811 ± 0.015,0.00438 ± 0.002
UCGACCUAGUGCUUGCAUAGUAUUUACAAA,0.168 ± 0.025,0.00328 ± 0.0015
AGGACCUACAGCUUGCAUAGUAAUUAGAUA,0.417 ± 0.057,0.0101 ± 0.0036
UCCUCCUACAGCAUGCAUAGUAUUUAGAUA,0.454 ± 0.046,0.00789 ± 0.0023
UCCUGGAUGAGCGUGCAUAGUAUUUAGUUA,0.766 ± 0.038,0.0181 ± 0.0051
UCCUGGUACAGCUUGCAUAGUAUAAUGUUA,0.229 ± 0.032,0.0143 ± 0.0036
AGGACGAACAGCUUGCAUAGUAUUUAGUAA,0.848 ± 0.08,0.0516 ± 0.011
UGGACCUUCAGCUUCCAUAGUAUUUAGUUA,0.0296 ± 0.0063,0.00372 ± 0.0019
UCCUGGAACAGCUUGCAUAGUAUUUAUUUA,0.305 ± 0.034,0.0214 ± 0.0085
UCCUCCAACAGCUUGGAUAGUAUUUAGUUA,1.3 ± 0.053,0.0527 ± 0.0092
UGGACCUACUGCUUGCAUAGUUUUUAGUUA,0.302 ± 0.018,0.0267 ± 0.0066
UCGACCUACAGCUUGCAUAGUAUAUAGAUA,0.29 ± 0.04,0.00446 ± 0.0022
UCCUGGAUGUCCUUGCAUAGUAUUUACUUA,0.0774 ± 0.014,0.00856 ± 0.0025
UCCUGGUACACCUUGCAUACUAUUUAGUUA,0.37 ± 0.12,0.00989 ± 0.0043
UCCUGGAACAGCUAGCAUAGUUUUUAGUUA,0.251 ± 0.021,0.0141 ± 0.0041
UCCUCCUACAGCUUGGAUAGUAUUUACUUA,0.2 ± 0.031,0.0159 ± 0.0024
